# Measurements published in article PMC4336329 (PLoS ONE, 2015).
# The campaign covered roughly 310,000 compounds. About 14,000 (4.5%) showed an effect of 50% or more. Effects have a minus sign here. The list shows a part of the results.
# Biological target: human ether-à-go-go-related gene (hERG) potassium channel (human, UniProt Q12809)
# Experiment: primary screen, population patch clamp on CHO cells stably expressing hERG
# 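Further: peak tail current of the secondary pulse compared with the same well before compound.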
# Sequence of human ether-à-go-go-related gene (hERG) potassium channel (Q12809 whole entry, looked up): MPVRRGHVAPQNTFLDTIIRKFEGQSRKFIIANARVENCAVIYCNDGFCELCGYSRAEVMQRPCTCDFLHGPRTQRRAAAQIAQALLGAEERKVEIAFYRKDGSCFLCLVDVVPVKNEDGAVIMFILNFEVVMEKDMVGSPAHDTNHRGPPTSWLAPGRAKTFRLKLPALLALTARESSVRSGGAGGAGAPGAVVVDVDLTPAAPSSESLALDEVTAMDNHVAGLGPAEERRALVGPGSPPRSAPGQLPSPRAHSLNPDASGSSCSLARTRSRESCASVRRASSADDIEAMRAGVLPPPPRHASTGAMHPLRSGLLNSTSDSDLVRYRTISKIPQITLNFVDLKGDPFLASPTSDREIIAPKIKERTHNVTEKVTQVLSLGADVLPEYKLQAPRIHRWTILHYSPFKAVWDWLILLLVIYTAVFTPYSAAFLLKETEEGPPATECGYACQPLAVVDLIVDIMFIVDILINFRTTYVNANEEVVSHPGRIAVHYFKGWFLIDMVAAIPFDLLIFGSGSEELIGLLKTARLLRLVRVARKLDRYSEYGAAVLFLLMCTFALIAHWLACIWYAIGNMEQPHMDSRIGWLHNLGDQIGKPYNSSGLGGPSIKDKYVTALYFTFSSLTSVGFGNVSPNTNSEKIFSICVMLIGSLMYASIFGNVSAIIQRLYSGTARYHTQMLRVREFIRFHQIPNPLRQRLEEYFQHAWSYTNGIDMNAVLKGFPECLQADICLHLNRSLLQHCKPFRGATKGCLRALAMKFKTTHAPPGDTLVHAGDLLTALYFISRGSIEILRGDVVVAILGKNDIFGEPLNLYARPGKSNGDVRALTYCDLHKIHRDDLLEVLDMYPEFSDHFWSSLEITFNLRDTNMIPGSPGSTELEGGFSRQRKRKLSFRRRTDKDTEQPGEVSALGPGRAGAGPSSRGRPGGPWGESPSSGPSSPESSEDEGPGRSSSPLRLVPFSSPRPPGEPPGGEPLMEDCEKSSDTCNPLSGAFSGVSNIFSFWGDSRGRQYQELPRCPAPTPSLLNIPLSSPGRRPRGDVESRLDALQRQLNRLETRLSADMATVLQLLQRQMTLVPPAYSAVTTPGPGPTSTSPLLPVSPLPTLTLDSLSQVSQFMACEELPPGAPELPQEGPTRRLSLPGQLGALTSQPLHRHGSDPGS
row,Structure (SMILES),"hERG current change (%, negative = inhibition) at 10uM [%]"
1,CC(=O)c1ccc(Oc2cc(C(F)(F)F)cnc2C(N)=O)cc1,13
2,CCOC(=O)C1=C(C)N=c2s/c(=C\c3ccc(OCC(=O)O)cc3)c(=O)n2C1c1ccc(OC(C)C)cc1 (stereo not drawn),9.19
3,CCS(=O)(=O)c1nc(S(=O)(=O)c2ccc(C)cc2)c(NCc2ccccn2)s1,4.58
4,Nc1cc(=O)[nH]c(=O)n1CCc1ccccc1,19
5,O=C(CSC1=NCCS1)N1CCOCC1,0.0438
6,CCN(Cc1ccccc1)S(=O)(=O)c1ccc2c(c1)NC(=O)CC(=O)N2,-45.4
7,O=C(NCc1cccnc1)c1cc(Sc2cccc(Cl)c2)nc2ccccc12,-15.4
8,CCC(C)NC(=O)C1CCCN(S(=O)(=O)c2ccc3c(c2)CC(C)N3C(=O)C2CC2)C1 (stereo not drawn),4.46
9,CCCCOC(=O)c1ccc(N2C(=O)CC(N3CCN(C/C=C/c4ccccc4)CC3)C2=O)cc1 (stereo not drawn),-31.4
10,O=C(N/N=C/c1ccc(O)c([N+](=O)[O-])c1)C1CC1(c1ccccc1)c1ccccc1 (stereo not drawn),-50.7
11,Cc1nnc(NC(=O)Cn2c(=O)sc3ccccc32)s1,9.97
12,O=C(CNCc1ccccc1)Nc1cccc(Cl)c1Cl.O=C(O)C(=O)O,5.28
13,C=CCNC(=O)COC(=O)CNC(=O)c1cc(Cl)cc([N+](=O)[O-])c1,13
14,COc1ccccc1C(=O)N(Cc1ccc(C)o1)C1CCS(=O)(=O)C1 (stereo not drawn),-11
15,Cc1ccc2[nH]c(=O)c(CN(Cc3cccs3)C(=S)NCc3ccco3)cc2c1,-6.94
16,CN(c1ccccc1C(=O)Nc1ccc(F)c(Cl)c1)S(C)(=O)=O,3.5
17,O=[N+]([O-])c1ccc(Cl)cc1N/N=C/c1ccncc1,10.1
18,O=C1c2ccccc2C(Nc2ccc(F)c(Cl)c2)N1c1ccccn1 (stereo not drawn),6.21
19,CCOC(=O)N1CCN(CC(=O)Nc2c(C(=O)OC)[nH]c3ccc(Cl)cc23)CC1,-21.1
20,Cc1cccc(NC(=O)C2CCN(C(=O)NC3CCCCC3)CC2)c1,7.39
21,CCn1cc(S(=O)(=O)Nc2cc(C(=O)OC)ccc2C)cn1,-20
22,C/C(=N\NC(=S)NC1CCCCC1)c1cccc(C(F)(F)F)c1,7.59

row,Structure (SMILES),"hERG current change (%, negative = inhibition) at 10uM [%]"
1,CC1CCCC(NC(=O)C2CCCN2S(=O)(=O)c2cccc3nsnc23)C1C (stereo not drawn),-15.4
2,COc1ccc2cc(C(N)=O)/c(=N/NC(=O)c3ccco3)oc2c1,-33.1
3,Cc1cc(=O)oc2cc(OCC(=O)OCC(=O)N(C)C3CCS(=O)(=O)C3)ccc12 (stereo not drawn),0.08
4,Cc1ccc(C2C(C#N)=C(N)N(c3cccnc3)C3=C2C(=O)CCC3)c(C)c1 (stereo not drawn),-4.42
5,O=C(Nc1nc(=S)ss1)c1c(F)cccc1F,10.2
6,Cc1cccc(NC(=O)c2cc(S(=O)(=O)c3ccccc3)ccc2Cl)c1,-6.32
7,Cc1cc(=O)n2c(-c3ccc(Cl)cc3)csc2n1,-16.7
8,CCOc1ccc(/C=N/n2c(C3CCCCC3)n[nH]c2=S)cc1,18.4
9,COc1ccc(/C=C/C(=O)N2CCCC2)cc1OC,-7.06
10,C=CCNC(=S)Nc1sc2c(c1C(=O)OCC)CCN(C(=O)OCC)C2,14
11,O=S(=O)(c1cccc(-c2nnc3n2CCCCC3)c1)N1CCCC1,7.25
12,CCc1cccc(NC(=O)CN(C)S(=O)(=O)c2cccc3nsnc23)c1,-39.1
13,CCOc1ccccc1NC(=O)COC(=O)C(Cc1ccccc1)NC(=O)c1ccco1 (stereo not drawn),-8.33
14,Cc1ccc(N2C(=O)CC(Sc3nc(-c4ccccc4)c4cc(Cl)ccc4n3)C2=O)c(C)c1 (stereo not drawn),3.36
15,CN(/C=C/C(=O)C(F)(F)F)Cc1ccccc1,7.49
16,CSc1ccc(C#N)cc1NC(=O)c1ccc(Cl)cc1Cl,-9.36
17,Cc1cccc(N2C(=O)C(O)=C(C(=O)c3cccs3)C2c2ccc(C(C)C)cc2)n1 (stereo not drawn),-9.21
18,O=C(NC1CCCC1)C(c1ccccc1F)N(C(=O)Cc1cccs1)c1ccc2c(c1)OCCO2 (stereo not drawn),-15.1
19,Cc1ccc(NC(=O)CCNC(=O)c2ccc([N+](=O)[O-])cc2)cc1C,-0.694
20,Cc1ccc(NC(=O)C(C)OC(=O)/C=C/c2ccccc2)cc1S(=O)(=O)N1CCOCC1 (stereo not drawn),-8.78
21,CCc1ccc(CCN2C(=O)c3ccccc3C2=O)nc1,-27.9
22,COCN(C#N)c1nc(OC)nc(OC)n1,9.19

row,Structure (SMILES),"hERG current change (%, negative = inhibition) at 10uM [%]"
1,CCOC(=O)c1ccc2c(c1)nc(C1CCN(S(=O)(=O)c3cccs3)CC1)n2CC,-43.6
2,Nc1nc(Cl)cc(Oc2ccccc2F)n1,2.9
3,COc1ccc(C(=O)O)cc1S(=O)(=O)Nc1ccc(Oc2ccccc2)cc1,-14.8
4,CC1CN(C(=O)COC(=O)c2cc([N+](=O)[O-])ccc2Cl)CC(C)O1 (stereo not drawn),5.39
5,O=C(CC1CCCCC1)Nc1ncn[nH]1,6.78
6,O=C(OCc1ccccc1)N1CCOCCN(C(=O)OCc2ccccc2)CCOCC1,-64
7,COc1ccc(NC(=O)CCC(=O)OC(C(=O)c2ccccc2)c2ccccc2)cc1 (stereo not drawn),-2.03
8,COc1ccc(CC(C)N2CCN(c3ccccc3OC)CC2)cc1OC (stereo not drawn),-62.1
9,CN(c1ccccc1)S(=O)(=O)c1cccc(NC(=O)c2cncc(Br)c2)c1,-24
10,COc1ccc(NCc2nnc(SCC(=O)Nc3ccccc3)n2C)cc1,-12.5
11,O=c1c(-c2ccccc2)nnc2sc(COc3ccc(Br)cc3)nn12,17
12,CCN(c1ccc(NC(=O)COC(=O)c2cccs2)cc1)C(C)C,-2.66
13,COc1cccc(C(=O)CN(C(=O)c2ccc(Cl)cc2Cl)N2C(=O)c3ccccc3C2=O)c1,-11.8
14,CCOc1ccccc1CN1CCC(CO)(CCOc2ccccc2)CC1,-80.2
15,Cc1cc(C(=O)OCC(=O)N2CCc3ccccc32)c(C)o1,12.9
16,CCOCCn1ccc2c(OCC(=O)NCCc3ccc(OC)c(OC)c3)cccc2c1=O,-19.2
17,COC(=O)c1c(C)c(OC(=O)c2c(C)cc(O)c(C=O)c2O)cc(C)c1O,26.4
18,CC1=C(C(=O)OCCc2ccccc2)C(c2ccsc2)NC(=O)N1C (stereo not drawn),-10.9
19,CCCCOC(=O)CSCC(=O)Nc1cc(C)on1,5.48
20,CC(C)(C)NC(=O)C(=O)NNC(=O)c1cccc([N+](=O)[O-])c1,9.73
21,Cc1ccc(N(CC(=O)NCCc2ccccc2)C(=O)CCC(=O)Nc2cc(C)ccn2)cc1,16.5
22,CC(=NCc1cccnc1)c1c(O)n(C2CCCCC2)c(=O)[nH]c1=O,-24.7

row,Structure (SMILES),"hERG current change (%, negative = inhibition) at 10uM [%]"
1,O=C(O)/C=C/C(=O)N1CCN(C(c2ccccc2)c2ccccc2)CC1,40.8
2,CCOc1ccc(S(=O)(=O)Nc2nc3ccc(OC)cc3s2)cc1,11.8
3,CN1CCN(c2ncc3c(n2)CC(c2ccccc2F)CC3=O)CC1 (stereo not drawn),-4.43
4,CCc1cc2c(NC3CCCC3)ncnc2s1.Cl,-11.4
5,NS(=O)(=O)c1ccc(NC(=S)Nc2ccc(OCc3ccccc3)cc2)cc1,24.2
6,C=CCN1C(=O)c2cccc3c(N4CCCCC4)ccc(c23)C1=O,-13.1
7,CN(C)c1cccc(C(=O)NN2C(=O)NC3(CCCCC3)C2=O)c1,2.18
8,O=C(C1CCCN(S(=O)(=O)c2cccc3nonc23)C1)N1CCC(Cc2ccccc2)CC1 (stereo not drawn),-30.9
9,O=C(COC(=O)COc1cccc(F)c1)NCCC1=CCCCC1,17
10,O=C(c1cccc(Cl)c1)N1CCn2c1nc1ccccc12,-15.7
11,O=C(Cn1sc2ccccc2c1=O)NC12CC3CC(CC(C3)C1)C2,20.6
12,CC(=O)NCc1nc2ccccc2n1Cc1ccccc1F,1.1
13,O=C(NC1=C(Nc2ccc(Cl)cc2)C(=O)c2ccccc2C1=O)c1ccccc1,-20.3
14,Cc1ccc2[nH]c(C(=O)N3CCOCC3)cc2c1,18.7
15,CC1CN(Cc2nnc(-c3ccccc3)o2)CC(C)O1.Cl (stereo not drawn),4.76
16,O=C(Nc1ccc2nc(-c3ccco3)[nH]c2c1)c1cccs1,-14.5
17,CCOc1ccc(CCNC(=O)COC(=O)CCc2cc(OC)c(OC)c(OC)c2)cc1OCC,-9.01
18,CCN1C(=O)C2C(c3cccc(F)c3)NC(CC)(C(=O)OC)C2C1=O (stereo not drawn),22.8
19,COCCN(C(=O)c1csnn1)C(C(=O)NC1CCCCC1)c1cccs1 (stereo not drawn),-19.5
20,COc1ccc(CN(C)C(=O)c2ccccc2Sc2ccccc2C#N)cc1OC,-13.9
21,CCc1nc2ccccc2n1Cc1cc(=O)n2cc(C)ccc2n1,-6.17
